The source of these data is the RNAGym collection of RNA variant scans (doi:10.7554/elife.90254).

The source gives no read counts; variants with many changes may rest on few reads.

First the molecules themselves.
B1: LINE1-mini (parent)
chain: GGCAGAGCUCAACACAGCGUGGCAAAGUGGCUGUGGCUAGACUGCC

The series covers variants of B1. The experiment in a line: self-cleavage, relative activity (ratio to wild type); higher = more cleavage; in vitro, sequencing; the parent is a self-cleaving ribozyme.
Consider GGCAGAGCUUAACACACCGUGCCAAAGUGGCUGUGGCUAGAAUACC [C10U G17C G22C C42A G44A], for which the self-cleavage amounted to 0.01.

For the variant GGCAGAGCUUAACACAGCAUGGCAAAGUGGCUGUGGCUAGAGUGCC [C10U G19A C42G], the self-cleavage was 0.01.

In the case of GGCAGAGCUUAACACAGCGUGGCAAAGUGGAUGUGGUUAGACUGCA [C10U C31A C37U C46A], the self-cleavage came to 0.

GGCAGAGCUUAACACAGCGUGGCAAAGUGGCUGUGGGUAGACUGGC [C10U C37G C45G]: the self-cleavage amounted to 0.02.

With GGCAGAGCUUAACACAGCGUGGCAAAGUGGUUGUGACUAGACUGCC [C10U C31U G36A], the self-cleavage amounted to 0.02.

For the variant GGCAGAGCUUAACACAACGUGGCAAAGUGGAUGUGUCUAGACUGCC [C10U G17A C31A G36U], the self-cleavage was found to be 0.01.

Consider GGCAGAGCUUAACACACCGUGGCAAACUGGUUGAGGCUAGACUGCU [C10U G17C G27C C31U U34A C46U], for which the self-cleavage was 0.03.

As to GGCAGAGCUUAACACACCGUGGCACAGUGGCUGCGGCUAGACUGCC [C10U G17C A25C U34C], the self-cleavage came to 0.03.

Regarding GGCAGAGCUUAACACAGCAUGGCAGAGUGCCUGUGGCUAGCCUGCG [C10U G19A A25G G30C A41C C46G], the self-cleavage is 0.02.

With GGCAGAGCUUAACACAGGGCGGCAAAGUGGCUGUGGCUAGACUGCC [C10U C18G U20C], the self-cleavage was determined as 0.35.

With GGCAGAGCUUAACACAUCGUGGCAAAGUGGCUGUUGCUAGACUGCC [C10U G17U G35U], the self-cleavage came to 0.03.

In the case of GGCAGAGCUUAACACAACGUGGCAAAGUUGCUGUGGCUAGACUGCC [C10U G17A G29U], the self-cleavage amounted to 0.02.

As to GGCAGAGCUUAACACAGAAUGGCAAAGUGGCUGUGGCUAAACUGCC [C10U C18A G19A G40A], the self-cleavage was determined as 0.04.

For the variant GGCAGAGCUUAACACAGCCUGGCAAAGUGGCUGUGGCUCGACUGCC [C10U G19C A39C], the self-cleavage was 0.04.

With GGCAGAGCUUAACACAGCGUGGAAAAGUGGUUGUGGCUAGACUGCC [C10U C23A C31U], the self-cleavage was 1.15.

For the variant GGCAGAGCUUAACACAGGGUGGAAAAGAGGCUGUGGCUAGACUGCC [C10U C18G C23A U28A], the self-cleavage was 0.13.

Turning to GGCAGAGCUUAACACAGAGUGUUAAAGUGGCUGUGGCUAGACUGCC [C10U C18A G22U C23U], the self-cleavage turned out to be 0.41.

With GGCAGAGCUUAACACAGCCUGGCAAAGUGGCUGUGCGUAGACUGCC [C10U G19C G36C C37G], the self-cleavage is 0.02.

For GGCAGAGCUUAACACAGUGUGGCAAACCAGGUGCGGCUAGACUCCA [C10U C18U G27C U28C G29A C31G U34C G44C C46A], the self-cleavage amounted to 0.

Turning to GGCAGAGCUUAACACAGCGUGGAAAAGUGGCUGUGGCUAGACUGCA [C10U C23A C46A], the self-cleavage was determined as 0.66.

Take GGCAGAGCUUAACACAGCGUGGAAAAGUGGCUGUGGCUAGACUGCU [C10U C23A C46U]: the self-cleavage stood at 0.36.

GGCAGAGCUUAACACACCGUCGAAAAGUGGCUGUGGCUAGACUGCC [C10U G17C G21C C23A]: the self-cleavage is 0.33.

Consider GGCAGAGCUUAACACAGCGUGGAAAAGUGGCUGAGGCUAGACUGCC [C10U C23A U34A], for which the self-cleavage came out at 0.04.

Consider GGCAGAGCUUAACACACCGUGGCAAAGUGGCUGUGGGUAGACUGCC [C10U G17C C37G], for which the self-cleavage came to 0.05.

GGCAGAGCUUAACACAGCGUGGAAAAGUGGCUUUGGCUAGACUGCC [C10U C23A G33U]: the self-cleavage is 0.01.

On to GGCAGAGCUUAACACAUCGUGGCAAAGUGGCUGUGGCAAGAUUGCC [C10U G17U U38A C42U], for which the self-cleavage stood at 0.06.

Turning to GGCAGAGCUUAACACAGCAUGGCAAAUUGGCUGUGGCUAGAAUGCC [C10U G19A G27U C42A], the self-cleavage was found to be 0.04.

As for GGCAGAGCUUAACACAGCGUGGCAAAGUGGUUGUGGCUCGACUGCC [C10U C31U A39C], the self-cleavage is 0.03.

Regarding GGCAGAGCUUAACACAACGUGGCAAAGUGGCUGUGGCUAGACAGCC [C10U G17A U43A], the self-cleavage worked out at 0.15.

For GGCAGAGCUUAACACAGCGUGGCAAAGUGGCUGUGGAUUCACUGCC [C10U C37A A39U G40C], the self-cleavage is 0.03.

Regarding GGCAGAGCUUAACACAGAGUGGCAAAGUGGUUGUGGCUACACUGCC [C10U C18A C31U G40C], the self-cleavage worked out at 0.02.

Turning to GGCAGAGCUUAACACAGCGUGGCAAAGUGGUAGUGGCUAGACUGCC [C10U C31U U32A], the self-cleavage came out at 0.01.

For GGCAGAGCUUAACACAUCGUGGCAAAGUGGCUGUGCCUAGACUGCC [C10U G17U G36C], the self-cleavage was found to be 0.03.

Regarding GGCAGAGCUUAACACAGCGUGGGAAAGUGUCUGUGGUUAGACUGCC [C10U C23G G30U C37U], the self-cleavage was found to be 0.01.

In the case of GGCAGAGCUUAACACAACAUGGCAAAGUGGCUGUGGCUAAACUGCC [C10U G17A G19A G40A], the self-cleavage stood at 0.07.

In the case of GGCAGAGCUUAACACAGCCUGGCAAAGUUGCUGUGGCUAGACUGCC [C10U G19C G29U], the self-cleavage was found to be 0.12.

In the case of GGCAGAGCUUAACACAGUGUGGCAAAGUGACUGUGGCUAGACUGCU [C10U C18U G30A C46U], the self-cleavage was found to be 0.04.

On to GGCAGAGCUUAACACAGUAUGGCAAAGUGGCUGUGGCUAGACUGCU [C10U C18U G19A C46U], for which the self-cleavage came to 0.2.

In the case of GGCAGAGCUUAACACAGCCUGGCAAAGUGUCUGUGGCUAGACUGCC [C10U G19C G30U], the self-cleavage was 0.09.

Regarding GGCAGAGCUUAACACAGCGUGGGAAAGUGGCUGUGGCUAAACUGCC [C10U C23G G40A], the self-cleavage is 0.

On to GGCAGAGCUUAACACAGCAUGGCAAUGUGGCUGUGGCUAGACUGCC [C10U G19A A26U], for which the self-cleavage is 0.98.

For the variant GGCAGAGCUUAACACAUUGUGGCAAAGUGGCUGCGGCUAGACUUCC [C10U G17U C18U U34C G44U], the self-cleavage turned out to be 0.04.

Consider GGCAGAGCUUAACACAGAGUGGCAAAGUGGCUGCGGCUAGCCUGCC [C10U C18A U34C A41C], for which the self-cleavage turned out to be 0.05.

Turning to GGCAGAGCUUAACACAGCGUGGUAAAGUGGCUGUGGCUCGACUGCC [C10U C23U A39C], the self-cleavage was determined as 0.1.

With GGCAGAGCUUAACACACCGUGGCCAAGUGGGUGUGAUAAGAGUGCC [C10U G17C A24C C31G G36A C37U U38A C42G], the self-cleavage was 0.

Regarding GGCAGAGCUUAACACAGCGUGGCAAAGUGGCUGUGGCUAGACUGAU [C10U C45A C46U], the self-cleavage was 0.08.

Turning to GGCAGAGCUUAACACACCGUGGCACAGUGGAUGUGGCUAGACUGCC [C10U G17C A25C C31A], the self-cleavage worked out at 0.25.

As for GGCAGAGCUUAACACAGUGUCGCAAAGUGGCUCUGGCUAGACUGGG [C10U C18U G21C G33C C45G C46G], the self-cleavage was determined as 0.02.

As for GGCAGAGCUUAACACAGCGUGGCAAAGUGGCUGUGGUUAGACUGCA [C10U C37U C46A], the self-cleavage stood at 0.

For GGCAGAGCUUAACACAGUGUGGCAAAGUGGCUGCGGCUAGACUGCC [C10U C18U U34C], the self-cleavage was found to be 0.04.

Regarding GGCAGAGCUUAACACAACGUGGCAAAGUGGCUUUGGCUAGACUGCC [C10U G17A G33U], the self-cleavage was 0.04.

As to GGCAGAGCUUAACACAGGGUGGCAAAGUGGCUGCGGCUAGGCUGCC [C10U C18G U34C A41G], the self-cleavage came out at 0.08.

With GGCAGAGCUUAACACAUCGUGGAAAAGUGGCUGUGGCUAGACUGCG [C10U G17U C23A C46G], the self-cleavage was 0.09.

For GGCAGAGCUUAACACAGCCUGGCAAAGUGGGUGUGGCUAGACUGCC [C10U G19C C31G], the self-cleavage was 0.07.

As for GGCAGAGCUUAACACACCGUGGCAAAGUGGCUGUGGCUUGACUGCC [C10U G17C A39U], the self-cleavage came out at 2.29.

For the variant GGCAGAGCUUAACACACCGUGGCAAAGAGGCUGUGGCUAGACUGCU [C10U G17C U28A C46U], the self-cleavage was determined as 0.17.
